Test results as given in PubChem BioAssay AID1030 (National Center for Advancing Translational Sciences (NCATS), 2008).
Several values for one entry are separate records, joined by “and”; a condition that tells them apart may be missing. Equal values may be shown once. In all, about 220,000 compounds went through this assay and about 16,000 (7.3%) were called active. This list was built around the results that the source calls inconclusive (neither active nor inactive); the mix of calls is not that of the screen. Calls follow the shape of the dose curve; as a rule, active = well fitted inhibition curve with a large enough effect (not every such curve was filed as active); inconclusive = small, poorly fitted or top-dose-only effect, or another doubt; inactive = no such curve, though single readings can be large or run the other way. Potencies of inconclusive entries are doubtful fits and often do not repeat.

Molecular target: Aldehyde dehydrogenase 1A1 (Homo sapiens) (UniProt P00352)
Sequence of UniProt P00352 (P00352 whole entry, looked up): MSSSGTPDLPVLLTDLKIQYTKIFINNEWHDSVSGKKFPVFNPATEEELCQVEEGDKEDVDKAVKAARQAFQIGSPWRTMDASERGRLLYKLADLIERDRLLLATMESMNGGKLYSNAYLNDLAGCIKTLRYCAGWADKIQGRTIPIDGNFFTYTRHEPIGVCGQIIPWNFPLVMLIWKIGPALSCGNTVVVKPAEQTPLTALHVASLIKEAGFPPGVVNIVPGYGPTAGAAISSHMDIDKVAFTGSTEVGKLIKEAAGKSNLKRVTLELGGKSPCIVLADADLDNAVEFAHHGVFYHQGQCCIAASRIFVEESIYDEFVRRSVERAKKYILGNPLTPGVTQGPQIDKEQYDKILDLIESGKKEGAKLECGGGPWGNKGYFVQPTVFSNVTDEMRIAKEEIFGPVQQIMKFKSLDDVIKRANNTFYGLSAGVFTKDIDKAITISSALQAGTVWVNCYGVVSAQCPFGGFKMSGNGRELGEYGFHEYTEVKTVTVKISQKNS
Test: qHTS Assay for Inhibitors of Aldehyde Dehydrogenase 1 (ALDH1A1)
Details: Purified ALDH1A1, NADH fluorescence, propionaldehyde substrate; series mostly up to 75.3 µM
Potency is read from the fitted curve at half-maximal effect; tags tell the direction and shape of the fitted curve.

| SMILES | Potency |
| --- | --- |
| Cc1ccc(Cn2ccc(NC(=O)c3noc4c3CCc3ccccc3-4)n2)cc1 | inactive |
| Cc1c(NC(=O)c2ccc3c(c2)C(=O)N(Cc2ccco2)C3=O)cccc1C(=O)O | inconclusive: 12.6 µM [inhibitor, partial curve] |
| O=C(Nc1cccs1)Nc1c(F)cc(F)cc1Br | inconclusive: 25.1 µM [inhibitor, single point] |
| CC(=O)c1ccc(N2CCN(C(=O)c3nn(Cc4ccccc4)c(=O)c4ccccc34)CC2)cc1 | inconclusive: 8.91 µM [inhibitor, partial curve] |
| Cc1cc(S(=O)(=O)NCC(c2ccccc2)c2ccccc2)ccc1-n1cnnn1 | inconclusive: 7.08 µM [inhibitor, partial curve] |
| C=CCOC(=O)c1ccccc1C(=O)OCC=C | inactive |
| Cc1cc(C)c2nc3nc(C)c(C)cc3c(N)c2c1 | inconclusive: 28.2 µM [inhibitor, partial curve] |
| Cc1sc2nc(SCC(=O)NCCO)n(-c3ccccc3)c(=O)c2c1C | inconclusive: 39.8 µM [inhibitor, single point] |
| Cc1cccnc1Sc1c([N+](=O)[O-])ncn1C | active: 15.8 µM |
| O=C(Nc1nc2ccc(F)cc2s1)C1=NN(c2ccccc2)C(=O)CC1 | inconclusive: 22.4 µM [inhibitor, partial curve] |
| CC(C)(C)NC(=O)NC(=O)COc1ccccc1C#N | inconclusive: 28.2 µM [inhibitor, partial curve] |
| CN(C)Cc1ccccc1-c1nc(NC2CCNCC2)c2ccccc2n1 | inactive |
| N[C@H](CO)Cc1cnc[nH]1 | inactive |
| N#Cc1ccc(OCC(=O)N2CCN(S(=O)(=O)c3cccs3)CC2)cc1 | inconclusive: 28.2 µM [inhibitor, single point] |
| CSCC(C)N1CCC(CO)(CCc2ccccc2)CC1 (centres undefined) | inconclusive: 39.8 µM [inhibitor, single point] |
| Fc1ccc(CNCc2ccccc2Cl)cc1 | active: 11.2 µM |
| O=C(CN1CCN(c2ncccn2)CC1)NCc1ccc2c(c1)OCO2 | inconclusive: 44.7 µM [inhibitor, single point] |
| O=C1N(c2ccc(Cl)cc2)C(c2ccccc2)N2CCCN12 (centres undefined) | inactive |
| CCS(=O)(=O)c1ccc2oc(SCC(=O)Nc3ccc(OC)cc3OC)nc2c1 | inactive |
| CCOC(=O)N1CCC(NC(=O)c2ccc3c(c2)sc2nc(-c4ccccc4)cn23)CC1 | inconclusive: 14.1 µM [inhibitor, partial curve] |
| O=C(NC12CC3CC(CC(C3)C1)C2)N1CCN(C(=O)c2ccco2)CC1 | inactive |
| CC1CCc2nc(N)c(C#N)c(-c3cccn3C)c2C1 (centres undefined) | inconclusive: 15.8 µM [inhibitor, partial curve] |
| C=CCOC(=O)COc1ccc2c(C)c(C)c(=O)oc2c1 | inconclusive: 25.1 µM [inhibitor, partial curve] |
| Cc1cc(NC(=O)CSc2nnc(-c3ccccc3)n2Cc2ccco2)no1 | inconclusive: 28.2 µM [inhibitor, single point] |
| Cc1cc(NCCCn2ccnc2)n2nc(C)c(-c3ccccc3)c2n1 | inactive |

| SMILES | Potency |
| --- | --- |
| Nc1nc(NCc2ccco2)nc(Nc2cccc(F)c2)c1[N+](=O)[O-] | inactive |
| C=CCNC(=S)N1CCN(Cc2ccccc2)CC1 | active: 14.1 µM |
| N#Cc1cc2c(nc1S(=O)(=O)Cc1ccccc1)CCCC2 | inconclusive: 44.7 µM [inhibitor, single point] |
| O=C(c1cccc(F)c1)N1CCC(O)(c2cccnc2)CC1 | inactive |
| Cc1nnc(N2CCOCC2)c2nn(-c3ccccc3)c(C)c12 | inactive |
| COc1ccc(-c2c(C(C)=O)c(C)nc3sc4c(=N)n(N)cnc4c23)cc1 | inconclusive: 10 µM [inhibitor, partial curve] |
| Cc1c(C(=O)Nc2ccc(F)cc2)oc2ccc(S(=O)(=O)N3CCCC3)cc12 | inconclusive: 31.6 µM [inhibitor, partial curve] |
| COc1nc2c(c(-c3cc(Br)cs3)c1C#N)Cc1ccccc1-2 | inconclusive: 22.4 µM [inhibitor, partial curve] |
| O=C(/C=C/c1ccco1)NCCCN1CCOCC1 | inconclusive: 39.8 µM [inhibitor, single point] |
| Cc1csc(NC(=O)c2ccccc2O)n1 | inconclusive: 23.8 µM [inhibitor, partial curve] |
| Cc1ccc(/C=N/n2cc(-c3ccccc3)[nH]c2=S)s1 | inconclusive: 39.8 µM [inhibitor, single point] |
| O=C1CCCC2=C1C(c1ccc3c(c1)OCO3)c1c([nH]n(-c3ccccc3)c1=O)N2 (centres undefined) | inconclusive: 39.8 µM [inhibitor, single point] |
| CC(C)CNS(=O)(=O)c1ccc(CCC(=O)N2CCC(C(N)=O)CC2)cc1 | inactive |
| O=C(NCc1ccco1)c1ccccc1-c1nc(-c2ccccc2)no1 | inconclusive: 31.6 µM [inhibitor, single point] |
| CCCC(=O)Nc1nc(C)c(-c2csc(Nc3cc(OC)ccc3OC)n2)s1 | inconclusive: 39.8 µM [inhibitor, single point] |
| CN1CCC(N(C)C(=O)/C=C/c2cn(-c3ccccc3)nc2-c2cccs2)CC1 | inconclusive: 39.8 µM [inhibitor, single point] |
| CC(C)CN1CC2(CCN(S(=O)(=O)c3ccccc3)CC2)C1 | inactive |
| O=C1Nc2ccccc2N=C(c2ccccc2)C1N1CCOCC1 (centres undefined) | active: 22.4 µM |
| COc1ccc(CC(=O)Nc2cccc(SC)c2)cc1OC | inactive |
| CC(NC(=O)c1ccc(N2CCNCC2)c([N+](=O)[O-])c1)C12CC3CC(CC(C3)C1)C2 (centres undefined) | inactive |
| Cc1cc(C(=O)COC(=O)c2ccc(N)cc2)c(C)n1-c1c(C)n(C)n(-c2ccccc2)c1=O | inactive |
| COc1ccc(C(C)=O)cc1CSc1nc2nc(C)cc(C)n2n1 | active: 20 µM |
| O=c1cnc2cnc(N3CCOCC3)nc2n1Cc1ccc(F)cc1 | inconclusive: 37.7 µM [inhibitor, single point] |
| CC1=C(C(=O)OCc2ccccc2)C(c2cccc([N+](=O)[O-])c2)NC(=O)N1CCCCCC(=O)O (centres undefined) | inconclusive: 22.4 µM [inhibitor, partial curve] and inconclusive: 31.6 µM [inhibitor, single point] |
